Measurements from PubChem BioAssay AID485294 (National Center for Advancing Translational Sciences (NCATS), 2010).
The campaign covered roughly 370,000 compounds. About 150 (0.041%) were called active. The shares of active, inactive and inconclusive entries below differ from those in the screen. Calls come from the whole dose curve; as a rule, active = well fitted inhibition curve with a large enough effect; inconclusive = small, poorly fitted or top-dose-only effect; inactive = flat fitted curve, though single readings scatter. Potencies of inconclusive entries are left out as doubtful fits.

Target: Beta-lactamase (Escherichia coli (strain K12)) (UniProt P00811)
Experiment: qHTS Inhibitors of AmpC Beta-Lactamase (assay with detergent); note: nearly all actives have a fitted effect of over 25% in size
Conditions: AmpC hydrolysis of nitrocefin, absorbance 480 nm, 0.01% Triton; series mostly up to 114 µM
Outline: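 AmpC (5.3 nM in the dispensed reagent) in 20 mM phosphate pH 7.0 with 0.01% (detergent screen) or 0.0001% Triton X-100 was preincubated with compounds for 15 min at room temperature. Nitrocefin was then added from an 800 uM solution, and hydrolysis was followed at 480 nm.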
Potency is the fitted concentration of half-maximal effect; tags give direction and shape of the fitted curve.

Chain of UniProt P00811 (P00811 whole entry, looked up): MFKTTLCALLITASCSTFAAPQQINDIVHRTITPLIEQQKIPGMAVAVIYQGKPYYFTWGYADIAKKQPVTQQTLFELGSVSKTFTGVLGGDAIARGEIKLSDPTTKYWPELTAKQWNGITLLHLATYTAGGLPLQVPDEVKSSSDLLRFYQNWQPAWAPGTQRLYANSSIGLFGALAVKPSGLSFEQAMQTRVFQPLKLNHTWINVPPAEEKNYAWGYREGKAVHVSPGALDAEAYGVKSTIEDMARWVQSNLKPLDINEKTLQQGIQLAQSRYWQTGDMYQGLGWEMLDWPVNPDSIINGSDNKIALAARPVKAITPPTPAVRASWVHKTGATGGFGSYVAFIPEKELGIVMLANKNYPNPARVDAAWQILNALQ

| Compound | Potency |
| --- | --- |
| CCn1ncc(NC(=S)Nc2ccc3c(c2)OCO3)c1C(N)=O | inconclusive [inhibitor, partial curve] |
| Cc1cc(Cl)n2nc(C)c(-c3ccc(Cl)cc3)c2n1 | inactive |
| O=C(CN(C(=O)c1csnn1)c1ccc(Cl)cc1)NC1CCCC1 | inconclusive [inhibitor, partial curve] |
| O=c1cccc2n1CC1CC2CN(Cc2c(Cl)cccc2Cl)C1 (stereo not given) | inconclusive [inhibitor, full curve, poor fit] |
| COc1cccc(CNC(=O)CCS(=O)(=O)c2cccs2)c1 | inconclusive [inhibitor, full curve] |
| COc1ccccc1-n1cnnc1SCC(=O)c1ccc[nH]1 | inconclusive [inhibitor, full curve] |
| Cc1ccc(NC(=O)C(Cc2ccccc2)NS(=O)(=O)c2ccc3c(c2)oc(=O)n3C)cc1F (stereo not given) | inactive |
| CCOC(=O)[C@@H](CCc1ccccc1)N[C@H](C)C(=O)N1[C@H](C(=O)O)C[C@@H]2CCC[C@@H]21 | inactive |
| CC(C)[C@H](CO)Nc1nc(Nc2ccc(Cl)c(C(=O)O)c2)c2ncn(C(C)C)c2n1 | inactive |
| O=C(NCCc1ccccc1)c1sc2ncccc2c1-n1cccc1 | inactive |
| COc1cccc(CN(C(=O)COc2ccc(C)cc2)C2CCS(=O)(=O)C2)c1 (stereo not given) | inactive |
| CCCc1cnc2c(c1SCC(=O)N1CCC(C)CC1)c(=O)n(C)c(=O)n2C | inactive |
| CCOc1ccc(N(CC(=O)N2CCN(c3ccccc3OC)CC2)S(=O)(=O)c2ccc(C)cc2)cc1 | inactive |
| COc1cccc(CNS(=O)(=O)c2ccc(S(=O)(=O)N3CCCC3)cc2)c1 | inactive |
| OCCN1CCN(CC/C=C2/c3ccccc3Sc3ccc(C(F)(F)F)cc32)CC1 | inactive |
| COc1ccc(NS(=O)(=O)c2ccc(O)c(C(=O)OCC(=O)N3CC(C)OC(C)C3)c2)cc1 (stereo not given) | inconclusive [inhibitor, full curve, poor fit] |
| O=C(NC(NNc1ccc([N+](=O)[O-])cc1)(C(F)(F)F)C(F)(F)F)c1ccc(F)cc1 | inactive |
| COc1ccccc1-c1noc(CCC(=O)Nc2cc(C(F)(F)F)ccc2Cl)n1 | inconclusive [inhibitor, full curve] |
| Brc1ccc(-n2c(SCc3nc4ccccc4[nH]3)nnc2-c2ccncc2)cc1 | inconclusive [inhibitor, partial curve] |
| O=C(CCNC(=O)c1ccccc1Cl)NC1=NCCS1 | inconclusive [inhibitor, partial curve, poor fit] |
